From PubChem BioAssay AID504333 (National Center for Advancing Translational Sciences (NCATS), 2011)
In all, about 360,000 compounds went through this assay and about 16,000 (4.4%) were called active. This list was built around the results that the source calls inconclusive (neither active nor inactive); the mix of calls is not that of the screen. Calls come from the whole dose curve; as a rule, active = well fitted inhibition curve with a large enough effect; inconclusive = small, poorly fitted or top-dose-only effect; inactive = no such curve, though single readings can be large or run the other way. Potencies of inconclusive entries are doubtful fits and often do not repeat.
% is set by controls: 0 for no effect and ±100 for the full control effect; potency is the fitted concentration of half-maximal effect; tags give direction and shape of the fitted curve.
Note: nearly all actives have a fitted effect of over 60% in size.

These molecules were tested against Bromodomain adjacent to zinc finger domain protein 2B (Homo sapiens) (UniProt Q9UIF8) (assay: qHTS Assay for Inhibitors of BAZ2B). Details: AlphaScreen BAZ2B-H3K14Ac peptide displacement; activity change, negative = inhibition: at 114 µM (top of the series).
Chain of UniProt Q9UIF8 (Q9UIF8 whole entry, looked up, the tested form may be a part): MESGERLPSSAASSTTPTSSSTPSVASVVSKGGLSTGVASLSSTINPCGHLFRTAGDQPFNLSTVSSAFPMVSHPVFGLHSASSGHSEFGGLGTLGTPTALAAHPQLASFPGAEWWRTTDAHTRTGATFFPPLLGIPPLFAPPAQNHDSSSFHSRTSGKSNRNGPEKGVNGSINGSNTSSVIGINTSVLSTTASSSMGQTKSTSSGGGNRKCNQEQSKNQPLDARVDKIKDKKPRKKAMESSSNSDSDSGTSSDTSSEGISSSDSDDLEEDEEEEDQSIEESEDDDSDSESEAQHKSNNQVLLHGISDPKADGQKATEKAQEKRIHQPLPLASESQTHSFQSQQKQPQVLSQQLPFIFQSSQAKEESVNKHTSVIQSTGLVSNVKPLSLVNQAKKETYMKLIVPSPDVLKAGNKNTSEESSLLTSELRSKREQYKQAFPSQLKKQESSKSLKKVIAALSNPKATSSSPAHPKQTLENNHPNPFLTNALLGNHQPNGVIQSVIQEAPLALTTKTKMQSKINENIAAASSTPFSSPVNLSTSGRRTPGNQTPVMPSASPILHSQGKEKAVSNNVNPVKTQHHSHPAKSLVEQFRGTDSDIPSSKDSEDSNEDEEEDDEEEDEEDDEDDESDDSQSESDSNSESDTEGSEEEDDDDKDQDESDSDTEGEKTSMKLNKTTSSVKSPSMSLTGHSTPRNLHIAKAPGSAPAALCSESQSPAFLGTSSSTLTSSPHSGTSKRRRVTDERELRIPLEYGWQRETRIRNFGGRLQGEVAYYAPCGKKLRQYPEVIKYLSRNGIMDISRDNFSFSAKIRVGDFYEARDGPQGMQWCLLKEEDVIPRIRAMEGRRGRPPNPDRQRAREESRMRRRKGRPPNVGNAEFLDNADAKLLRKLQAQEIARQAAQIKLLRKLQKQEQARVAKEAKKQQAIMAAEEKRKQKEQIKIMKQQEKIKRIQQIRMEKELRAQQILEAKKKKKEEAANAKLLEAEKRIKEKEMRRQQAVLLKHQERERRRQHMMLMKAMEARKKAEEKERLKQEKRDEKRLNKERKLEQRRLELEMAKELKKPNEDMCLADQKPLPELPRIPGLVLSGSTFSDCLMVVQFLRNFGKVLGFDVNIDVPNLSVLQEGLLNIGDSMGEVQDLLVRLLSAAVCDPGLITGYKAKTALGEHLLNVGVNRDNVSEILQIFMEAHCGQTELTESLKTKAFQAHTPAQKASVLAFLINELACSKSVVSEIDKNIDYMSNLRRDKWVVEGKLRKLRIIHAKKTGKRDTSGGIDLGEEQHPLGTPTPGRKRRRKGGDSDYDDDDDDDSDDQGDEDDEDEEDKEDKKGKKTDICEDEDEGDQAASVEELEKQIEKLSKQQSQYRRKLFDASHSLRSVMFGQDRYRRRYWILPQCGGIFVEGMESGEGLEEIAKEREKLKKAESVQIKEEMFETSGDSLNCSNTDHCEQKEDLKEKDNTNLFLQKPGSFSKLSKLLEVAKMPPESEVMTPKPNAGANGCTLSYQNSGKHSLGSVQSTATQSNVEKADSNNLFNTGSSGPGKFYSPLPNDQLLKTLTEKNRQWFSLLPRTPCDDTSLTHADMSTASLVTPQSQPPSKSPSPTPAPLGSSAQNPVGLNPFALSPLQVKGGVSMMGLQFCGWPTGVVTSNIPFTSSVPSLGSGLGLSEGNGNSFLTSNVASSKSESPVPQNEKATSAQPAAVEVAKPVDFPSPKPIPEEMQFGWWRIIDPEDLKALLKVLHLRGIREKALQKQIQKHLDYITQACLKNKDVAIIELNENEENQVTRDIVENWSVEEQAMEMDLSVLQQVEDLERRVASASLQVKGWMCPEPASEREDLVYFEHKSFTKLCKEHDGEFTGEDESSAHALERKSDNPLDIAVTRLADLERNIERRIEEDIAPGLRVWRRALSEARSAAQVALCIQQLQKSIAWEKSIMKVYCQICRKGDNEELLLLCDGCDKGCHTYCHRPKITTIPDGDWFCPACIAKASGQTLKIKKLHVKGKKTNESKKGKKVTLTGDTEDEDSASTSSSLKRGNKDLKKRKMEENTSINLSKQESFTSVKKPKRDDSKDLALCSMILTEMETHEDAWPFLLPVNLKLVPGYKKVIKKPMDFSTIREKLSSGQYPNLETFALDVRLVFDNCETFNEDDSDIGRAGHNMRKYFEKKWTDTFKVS
How it was run: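 Compounds, titrated to a top concentration of 110 uM, were incubated 30 min at room temperature with preformed BAZ2B/acetyl-K14 H3 peptide complex (50 nM each). Proximity signal was measured by AlphaScreen after 20 min with beads.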
With `Cc1ccc(NC(=O)c2cc(-c3ccco3)nc3ccccc23)cc1S(=O)(=O)N1CCOCC1` the Potency was inconclusive: 56.2 µM [inhibitor, partial curve, poor fit].
For `COc1ccc(N(CC(=O)N/N=C/c2ccc(N(C)C)cc2)S(=O)(=O)c2ccccc2)cc1`, the Potency was inconclusive: 22.4 µM [inhibitor, full curve].
In the case of `CC(OC(=O)CC(C)c1ccccc1)C(=O)Nc1ccc(Cl)cn1` (stereo unspecified), the “activity change, negative = inhibition” value is reported as inactive: 27.4%.
`Cc1ccccc1C(=O)N1CCN(c2ccc(NC(=S)NC(=O)c3ccco3)cc2)CC1` was tested, and the Potency was inconclusive: 31.6 µM [inhibitor, partial curve].
With `O=C(CSc1nc2ccccc2[nH]1)Nc1nc(-c2ccccc2)c(-c2ccccc2)o1` the Potency was inconclusive: 89.1 µM [inhibitor, single point].
`Cc1ccc(NC(=O)c2cc(=O)c3ccccc3o2)cc1S(=O)(=O)N1CCCCC1` was tested, and the Potency was inconclusive: 56.2 µM [inhibitor, partial curve, poor fit].
With `Cc1ccc(NC(=O)COc2ccc(Br)cc2C)cc1` the “activity change, negative = inhibition” value was inactive: -1.75%.
In the case of `COc1cc(NS(=O)(=O)c2ccc(NC(=S)NC(=O)c3sc4ccccc4c3Cl)cc2)ncn1`, the “activity change, negative = inhibition” value is reported as inactive: -21.3%.
`COc1ccc(NCC(=O)N/N=C/C=C\c2ccccc2)cc1` was tested, and the Potency was inconclusive: 39.8 µM [inhibitor, partial curve].
With `Cc1nc(NC(=O)/C=C/c2ccco2)sc1C` the Potency was inconclusive: 70.8 µM [inhibitor, single point].
For `CCOC(=O)c1c(/N=C/c2cccc([N+](=O)[O-])c2O)sc(C)c1C`, the Potency was active: 44.7 µM.
With `NC(=S)N=Nc1c(O)n(Cc2ccccc2)c2ccccc12` the Potency was inconclusive: 39.8 µM [inhibitor, single point].
With `COc1ccc(N2C(=O)CS/C2=C\[N+](=O)[O-])cc1` the Potency was inconclusive: 50.1 µM [inhibitor, partial curve].
In the case of `CCc1nc2c(cnn2-c2ccc(Cl)cc2)c(=O)n1-c1ccc2c(c1)OCCO2`, the “activity change, negative = inhibition” value is reported as inactive: 8.37%.
With `C/C(=N/Nc1ccccc1C(=O)O)c1cccs1` the Potency was inconclusive: 79.4 µM [inhibitor, single point].
`Cc1ccc2cc(C(=O)O)c(C)nc2c1` was tested, and the Potency was inconclusive: 31.6 µM [inhibitor, partial curve].
`Cc1cccc(/C=C2\Oc3cc(OS(C)(=O)=O)ccc3C2=O)c1` was tested, and the Potency was inconclusive: 10 µM [inhibitor, full curve, poor fit].
In the case of `O=C(N/N=C/C=C/c1ccc([N+](=O)[O-])cc1)c1cccs1`, the Potency is reported as active: 50.1 µM.
For `COc1ccc(-c2cc(C(F)(F)F)n3nc(C(=O)O)nc3n2)cc1`, the Potency was inconclusive: 89.1 µM [inhibitor, single point].
In the case of `CCN(CC)CCCN(C(=O)c1ccc(F)cc1)c1nc(-c2ccc(OC)cc2)cs1`, the Potency is reported as inconclusive: 50.1 µM [inhibitor, partial curve].
With `O=C(CCC(=O)Nc1cccc(C(F)(F)F)c1)NCC1CCCO1` (stereo unspecified) the “activity change, negative = inhibition” value was inactive: 8.56%.
`O=C(C1CCCCC1)N(Cc1cccnc1)c1nc2ccc(Cl)cc2s1` was tested, and the “activity change, negative = inhibition” value was inactive: -8.18%.
In the case of `Cc1cc(NC(=O)COC(=O)c2c(Cl)cccc2Cl)no1`, the “activity change, negative = inhibition” value is reported as inactive: 28.4%.
For `COc1ccc(NCc2nnc(SCC(=O)Nc3cc(C(F)(F)F)ccc3Cl)o2)cc1`, the Potency was inconclusive: 70.8 µM [inhibitor, single point].
In the case of `CCCCn1c(SCC(=O)NCc2ccco2)nc2c(sc3ccccc32)c1=O`, the “activity change, negative = inhibition” value is reported as inactive: 15.1%.
With `C=CCc1cc(Cl)ccc1OCCN1CC(C)OC(C)C1` (stereo unspecified) the Potency was inconclusive: 89.1 µM [inhibitor, single point].
For `CN(C)S(=O)(=O)c1cccc(C(=O)Nc2ccccc2[N+](=O)[O-])c1`, the Potency was inconclusive: 70.8 µM [inhibitor, single point].
For `CCOc1ccc(NCCC(O)c2ccc(F)cc2)cc1` (stereo unspecified), the Potency was active: 50.1 µM.
For `CC(C)c1ccc(-n2cnn(-c3ncccc3[N+](=O)[O-])c2=O)cc1`, the Potency was inconclusive: 56.2 µM [inhibitor, partial curve, poor fit].
For `Cc1cc(C(=O)CSc2nnnn2C)c(C)n1-c1ccc2c(c1)OCCO2`, the Potency was inconclusive: 79.4 µM [inhibitor, single point].
With `CCC(C)NCCOCCOc1ccc(F)cc1` (stereo unspecified) the Potency was inconclusive: 100 µM [inhibitor, single point].
For `COc1ccc(Nc2cc(C(=O)NCCCOC(C)C)c3ccccc3n2)c(OC)c1`, the Potency was inconclusive: 79.4 µM [inhibitor, single point].
With `O=C1CCCC2=C1Sc1ccccc1N2` the Potency was active: 44.7 µM.
With `COc1ccc(NC(=O)C(Cc2ccccc2)NS(=O)(=O)c2ccc3c(c2)oc(=O)n3C)c(OC)c1` (stereo unspecified) the “activity change, negative = inhibition” value was inactive: 2.54%.
`Cc1cccc2nc(-c3ccc(Cl)s3)c(Nc3ccc4c(c3)OCCO4)n12` was tested, and the Potency was active: 12.6 µM.
With `COc1ccccc1/C=C/C=N/N1CCN(Cc2cccc3ccccc23)CC1` the Potency was active: 31.6 µM.
For `O=[N+]([O-])c1ccccc1OCCCOc1cccc2cccnc12`, the Potency was inconclusive: 89.1 µM [inhibitor, single point].
For `Cc1cc(=O)[nH]c2nnc(SCc3cccc(C(F)(F)F)c3)n12`, the Potency was inconclusive: 79.4 µM [inhibitor, single point].
In the case of `O=C(CSc1nccn1Cc1ccco1)Nc1ccc(OC(F)(F)F)cc1`, the Potency is reported as inconclusive: 31.6 µM [inhibitor, partial curve].
With `O=C(O)/C=C/C(=O)NNC(=O)c1ccccc1Br` the Potency was inconclusive: 89.1 µM [inhibitor, single point].
In the case of `Cc1cccc(C)c1NC(=O)CN(C)C(=O)c1ccc2nc[nH]c2c1`, the Potency is reported as inconclusive: 89.1 µM [inhibitor, single point].
In the case of `COC(=O)c1sc(N)c(C(=O)OC)c1COC(=O)C1CC(=O)N(Cc2ccco2)C1` (stereo unspecified), the Potency is reported as inconclusive: 89.1 µM [inhibitor, single point].
`O=C(N/N=C/c1ccco1)c1ccc(N2CCCC2=O)cc1` was tested, and the Potency was inconclusive: 70.8 µM [inhibitor, single point].
In the case of `CCOc1ccc(CN(CCc2ccc3c(c2)OCO3)Cc2cc(OC)cc(OC)c2)cc1`, the Potency is reported as inconclusive: 100 µM [inhibitor, single point].
In the case of `CC1(C(=O)O)Cc2ccccc2C(=O)O1` (stereo unspecified), the Potency is reported as inconclusive: 14.1 µM [inhibitor, full curve, poor fit].
In the case of `O=C(Nc1ccc(-n2nncc2-c2ccco2)cc1)c1ccc(F)cc1`, the Potency is reported as inconclusive: 44.7 µM [inhibitor, partial curve].
`CCCNC(=O)CSc1ccc(S(=O)(=O)N2CCCCC2)cn1` was tested, and the Potency was inconclusive: 89.1 µM [inhibitor, single point].
In the case of `C/C(=N\NC(=O)C(N)=O)c1cccc([N+](=O)[O-])c1`, the Potency is reported as inconclusive: 89.1 µM [inhibitor, single point].
With `O=c1c2ccccc2sn1-c1ccc(S(=O)(=O)N2CCCC2)cc1` the Potency was active: 7.08 µM.
`COc1ccc(C(=O)/C=C/Nc2cccc(O)c2)cc1` was tested, and the “activity change, negative = inhibition” value was inactive: -30.5%.
`O=C(c1ccccc1)c1ccc(OCC(O)CN2CCN(Cc3ccccc3)CC2)cc1` (stereo unspecified) was tested, and the Potency was inconclusive: 35.5 µM [inhibitor, full curve, poor fit].
`CC(C)(C)c1cc(C(c2cccnc2)N2CCN(CCO)CC2)cc(C(C)(C)C)c1O` (stereo unspecified) was tested, and the Potency was active: 50.1 µM.
`COc1ccc2c(c1)c(C(=O)N/N=C/c1ccc(O)c(O)c1)c(C)n2C` was tested, and the Potency was inconclusive: 70.8 µM [inhibitor, single point].
For `CC1S/C(=N/N=C2CCCCC2)NC1=O` (stereo unspecified), the Potency was active: 50.1 µM.
`CCOCC(=O)Nc1nc2ccccc2s1` was tested, and the “activity change, negative = inhibition” value was inactive: 13.8%.
With `COc1ccc(C)cc1NC(=S)NC(C)c1ccc(OC)c(OC)c1` (stereo unspecified) the Potency was inconclusive: 44.7 µM [inhibitor, partial curve].
For `C[C@H](NC(=O)[C@@H]1CSC2c3ccccc3C(=O)N21)C(=O)NCCc1ccccc1` (stereo partly specified), the Potency was inconclusive: 100 µM [inhibitor, partial curve, poor fit].
For `COc1ccc(C(C(=O)NCC2CCCO2)N(C(=O)CNC(=O)c2cccs2)c2ccccc2)cc1OC` (stereo unspecified), the “activity change, negative = inhibition” value was inactive: -6.11%.
`COCCN(CCOC)Cc1c(O)ccc2c1O/C(=C\c1ccc(C)o1)C2=O` was tested, and the Potency was inconclusive: 70.8 µM [inhibitor, single point].
In the case of `CC(=O)c1sc(N/N=C\c2ccc(N(C)C)cc2)nc1C`, the “activity change, negative = inhibition” value is reported as inactive: -1.24%.
In the case of `CC(C)Cn1c(=O)c2c(nc3n2CCCN3Cc2ccccc2)n(C)c1=O`, the Potency is reported as inconclusive: 79.4 µM [inhibitor, single point].
With `CCN(CCCNC(=O)CN1N=C(c2ccccc2)CCC1=O)c1cccc(C)c1` the Potency was inconclusive: 39.8 µM [inhibitor, partial curve].
With `O=C1c2ccccc2-c2onc3ccc(N4CCCC4)c1c23` the Potency was active: 14.1 µM.
`O=C(O)CN1C(=O)S/C(=C\c2cccnc2)C1=O` was tested, and the Potency was active: 50.1 µM.
With `CC(CCN1CCOCC1)c1ccccc1` (stereo unspecified) the Potency was inconclusive: 89.1 µM [inhibitor, single point].
With `O=C(NCC(c1ccco1)S(=O)(=O)c1ccc(Cl)cc1)c1ccc(C(F)(F)F)cc1` (stereo unspecified) the “activity change, negative = inhibition” value was inactive: -4.11%.
For `COc1cc(CNn2c(C)n[nH]c2=S)cc(Cl)c1OCc1ccc(F)cc1`, the Potency was inconclusive: 39.8 µM [inhibitor, partial curve].
For `CCN1CCN(Cc2ccc(NC(=O)c3cc(NC(=O)c4cc5cccc(OC)c5o4)cc(OC)c3)cc2C(F)(F)F)CC1`, the Potency was inconclusive: 50.1 µM [inhibitor, partial curve].
In the case of `CC(=O)N1CCCc2cc(S(=O)(=O)N3CCCC(C(=O)Nc4ccc(F)cc4F)C3)ccc21` (stereo unspecified), the “activity change, negative = inhibition” value is reported as inactive: -8.87%.
`Cc1ccccc1CN1CCCC(C(=O)N2CCCCC2)C1` (stereo unspecified) was tested, and the Potency was active: 79.4 µM.
For `COc1cccc(-c2n[nH]c(=S)n2Cc2ccco2)c1OC`, the “activity change, negative = inhibition” value was inactive: -5.25%.
